# Some of the results follow.
# Key:
# Experiment in all cases: glycan array binding signal (z-score within array); higher = stronger binding
# Conditions in all cases: glycan notation: IUPAC condensed, linker removed
# [1] = molecular target: Neu5Ac(a2-6)Gal(b1-4)GlcNAc
# Outline: (§1)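 Glycan array data were curated from 3228 arrays in the Consortium for Functional Glycomics database and kept only where the protein sequence was available. Glycan names were converted to IUPAC-condensed notation, and columns mapping to the same glycan were averaged. The binding signal is a within-array Z-score, averaged across arrays of the same protein sequence at different concentrations or buffers and across linkers. Negative Z-scores can be read as non-binding.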
# [2] = molecular target: Neu5Ac(a2-6)Gal(b1-4)GlcNAc(b1-2)Man(a1-3)[Gal(b1-4)GlcNAc(b1-2)Man(a1-6)]Man(b1-4)GlcNAc(b1-4)GlcNAc
# Outline: as §1
# [3] = molecular target: Neu5Ac(a2-6)Gal(b1-4)GlcNAc(b1-2)Man(a1-3)[GlcNAc(b1-2)Man(a1-6)]Man(b1-4)GlcNAc(b1-4)GlcNAc
# Outline: as §1
# [4] = molecular target: Neu5Ac(a2-6)Gal(b1-4)GlcNAc(b1-2)Man(a1-3)[GlcNAc(b1-2)Man(b1-4)GlcNAc(b1-2)Man(a1-6)]Man(b1-4)GlcNAc(b1-4)GlcNAc
# Outline: as §1
# [5] = molecular target: Neu5Ac(a2-6)Gal(b1-4)GlcNAc(b1-2)Man(a1-3)[Neu5Ac(a2-6)Gal(b1-4)GlcNAc(b1-2)Man(a1-6)]Man(b1-4)GlcNAc(b1-4)GlcNAc
# Outline: as §1
# [6] = molecular target: Neu5Ac(a2-6)Gal(b1-4)GlcNAc(b1-2)Man(a1-6)[Gal(b1-4)GlcNAc(b1-2)Man(a1-3)]Man(b1-4)GlcNAc(b1-4)GlcNAc
# Outline: as §1
# [7] = molecular target: Neu5Ac(a2-6)Gal(b1-4)GlcNAc(b1-2)Man(a1-6)[GlcNAc(b1-2)Man(a1-3)]Man(b1-4)GlcNAc(b1-4)GlcNAc
# Outline: as §1
# [8] = molecular target: Neu5Ac(a2-6)Gal(b1-4)GlcNAc(b1-3)Gal(b1-4)GlcNAc
# Outline: as §1
# [9] = molecular target: Neu5Ac(a2-6)Gal(b1-4)GlcNAc(b1-3)Gal(b1-4)[Fuc(a1-3)]GlcNAc(b1-3)Gal(b1-4)[Fuc(a1-3)]GlcNAc
# Outline: as §1
# [10] = molecular target: Neu5Ac(a2-6)Gal(b1-4)GlcNAc6S
# Outline: as §1
# Neu5Ac(a2-6)GalNAc = molecular target: Neu5Ac(a2-6)GalNAc
# Outline: as §1
# [11] = molecular target: Neu5Ac(a2-6)GalNAc(b1-4)GlcNAc
# Outline: as §1
# Neu5Ac(a2-8)Neu5Ac = molecular target: Neu5Ac(a2-8)Neu5Ac
# Outline: as §1
# [12] = molecular target: Neu5Ac(a2-8)Neu5Ac(a2-3)Gal(b1-4)Glc
# Outline: as §1
# [13] = molecular target: Neu5Ac(a2-8)Neu5Ac(a2-3)[GalNAc(b1-4)]Gal(b1-4)Glc
# Outline: as §1
# [14] = molecular target: Neu5Ac(a2-8)Neu5Ac(a2-8)Neu5Ac
# Outline: as §1
# [15] = molecular target: Neu5Ac(a2-8)Neu5Ac(a2-8)Neu5Ac(a2-3)Gal(b1-4)Glc
# Outline: as §1
# [16] = molecular target: Neu5Ac(a2-8)Neu5Ac(a2-8)Neu5Ac(a2-3)[GalNAc(b1-4)]Gal(b1-4)Glc
# Outline: as §1
# [17] = molecular target: Neu5Ac(a2-8)Neu5Ac(a2-8)Neu5Ac(a2-8)Neu5Ac(a2-3)[GalNAc(b1-4)]Gal(b1-4)Glc
# Outline: as §1
# [18] = molecular target: Neu5Ac(b2-6)Gal(b1-4)GlcNAc
# Outline: as §1
# Neu5Ac(b2-6)GalNAc = molecular target: Neu5Ac(b2-6)GalNAc
# Outline: as §1
# [19] = molecular target: Neu5Ac9Ac(a2-6)Gal(b1-4)GlcNAc
# Outline: as §1
# [20] = molecular target: Neu5Gc(a2-3)Gal(b1-3)GlcNAc
# Outline: as §1
# [21] = molecular target: Neu5Gc(a2-3)Gal(b1-3)[Fuc(a1-4)]GlcNAc
# Outline: as §1
# Neu5Gc(a2-3)Gal(b1-4)Glc = molecular target: Neu5Gc(a2-3)Gal(b1-4)Glc
# Outline: as §1
# [22] = molecular target: Neu5Gc(a2-3)Gal(b1-4)GlcNAc
# Outline: as §1
# [23] = molecular target: Neu5Gc(a2-3)Gal(b1-4)[Fuc(a1-3)]GlcNAc
# Outline: as §1
# [24] = molecular target: Neu5Gc(a2-6)Gal(b1-4)GlcNAc
# Outline: as §1
# Neu5Gc(a2-6)GalNAc = molecular target: Neu5Gc(a2-6)GalNAc
# Outline: as §1
# [25] = molecular target: Neu5Gc(b2-6)Gal(b1-4)GlcNAc
# Outline: as §1
binder,measurement,setting,value
"NESD (Drosophila melanogaster), NP_610025.1 (protein) MGHHHHHHSSGVDLGTENLYFQSMMEVFTFEKSYLERLKEAEAVLSWEGAVMPASQVRSEWKSYVELKIEPAGWQAIWKIPRVICEDLKLRYPTIVYGYVEQVIFDELKAVFVVTAVQDSDVHLPESNEVSLVELWPTVQQENAALNVDTTAECIDRLRFFYTHVWMPWDKDYDDDRDWVQQHLQARIQLVCDLSKNRLPRPLALHMRTLLAEAKYIQQRLDYLELDLSDAESDDEAVELNDSVAEPARKQSKAGSANGCLNVSSLPVTDLMCLHLRMAIIRSEFEILENPEMRRAYSELQSNSLKRLRCSSGRTRQSEDLLVERNSISHVVTLPGKLQQQLELLKLAQTLVKPESKVQLSNTLQDVLSICQSNDDILLSPGEHTIKFLEHLNDNGSLRGLTQPEAILSPAADLSLLPVVCSSDEDSTLLVIDGDYTLSELVLDCRHVRRGILLRNGTLTMRGCRLLGDGSSSTQEGIVCMPGASVELKSCLIENFAVGVSMRPKSSAELGSVQFKTCKTGLELLEKSASVNLQGSKCSFENCALGILADGFVLGEQRTEKVLVLNKFSELQRYNEDNLLGNCSFYNCKKNVRVFNESGQLLAQRSHQQLLEDELGGENKENIQLV",glycan array binding signal (z-score),[1],-0.221
same,glycan array binding signal (z-score),[2],0.256
same,glycan array binding signal (z-score),[3],-0.23
same,glycan array binding signal (z-score),[4],-0.094
same,glycan array binding signal (z-score),[5],-0.177
same,glycan array binding signal (z-score),[6],-0.271
same,glycan array binding signal (z-score),[7],-0.447
same,glycan array binding signal (z-score),[8],-0.075
same,glycan array binding signal (z-score),[9],0.384
same,glycan array binding signal (z-score),[10],0.162
same,glycan array binding signal (z-score),Neu5Ac(a2-6)GalNAc,-0.34
same,glycan array binding signal (z-score),[11],0.166
same,glycan array binding signal (z-score),Neu5Ac(a2-8)Neu5Ac,0.138
same,glycan array binding signal (z-score),[12],-0.619
same,glycan array binding signal (z-score),[13],-0.257
same,glycan array binding signal (z-score),[14],-0.204
same,glycan array binding signal (z-score),[15],-0.196
same,glycan array binding signal (z-score),[16],0.063
same,glycan array binding signal (z-score),[17],-0.199
same,glycan array binding signal (z-score),[18],-0.286
same,glycan array binding signal (z-score),Neu5Ac(b2-6)GalNAc,-0.401
same,glycan array binding signal (z-score),[19],-0.403
same,glycan array binding signal (z-score),[20],-0.276
same,glycan array binding signal (z-score),[21],-0.219
same,glycan array binding signal (z-score),Neu5Gc(a2-3)Gal(b1-4)Glc,-0.037
same,glycan array binding signal (z-score),[22],-0.221
same,glycan array binding signal (z-score),[23],0.166
same,glycan array binding signal (z-score),[24],-0.592
same,glycan array binding signal (z-score),Neu5Gc(a2-6)GalNAc,-0.265
same,glycan array binding signal (z-score),[25],-0.247
